Results on 20 variants are retold here after the RNAGym collection of RNA variant scans (doi:10.7554/elife.90254).

The source gives no read counts; variants with many changes may rest on few reads.

The labels stand for the following.
B1: OR4K15 (parent)
chain: GUUAACGGUCAUAGGCCAUGGAAACUAGGAGCACCAUUUCGCUGCCAGUGAAGAAAUGAACAAAGAAAAUCUGGGCCAGGCAGGCAUCAAAAGAAAUAGUCUUGCGCUCAACCAGAAAGUCUGUAAUCAUUUUAAGGGUA

In this data set the parent is B1. The data set is described as follows: self-cleavage, relative activity (ratio to wild type); higher = more cleavage; in vitro, sequencing; the parent is a self-cleaving ribozyme.
Take GUUAACGGUCAUAGGCCAUGGAAACUAGGAGCACCAUUUCGCUGCCAGUGAAGAAAUGAACAAAGAAAAUCAGGGCCAGGCUGGCAUCAAAAGAAAUAGUCUUGCGCACAACCAGAGAGUCUGUAAUCAUUUUAAGGGUA [U72A A82U U108A A117G]: the self-cleavage amounted to 0.01.
In the case of GUUAACGGUCAUAGGCCAUGGAAACUAGGAGCACCAUUUCGCUGCCAGUGAAGAAAUGAACAAAGAAAAUCAGGGCCAGGCAGGCAUCAAUAGAAAUAGUCCUGCGCUCAACCAGGAAGUCCGUAAUCAUUUUAAGGGUA [U72A A91U U102C A116G U122C], the self-cleavage came out at 0.16.
Regarding GUUAACGGUCAUAGGCCAUGGAAACUAGGAGCACCAUUUCGCUGCCAGUGAAGAAAUGAACAAAGAAAACCUGGGCCAGGCAGGCAUCAAAAGAAAUAGUCUUGCGCUCAACCAGAAGGGCUGUAAUCAUUUUAAGGGUA [U70C A118G U120G], the self-cleavage worked out at 0.25.
Next, GUUAACGGUCAUAGGCCAUGGAAACUAGGAGCACCAUUUCGCUGCCAGUGAAGAAAUGAACAAAGAAAACCUGGGCCAGGCAGGCAUCAGAAGAAAUAGUCUUGCGCUCAACCAGAAAGUCUGCAAUCAUUUUAAGGGUA [U70C A90G U124C]: 0.31; GUUAACGGUCAUAGGCCAUGGAAACUAGGAGCACCAUUUCGCUGCCAGUGAAGAAAUGAACAAAGAAAAUCAGGGCCGGGCAGGCAUCAAGAGAAAUAGUCUUGCGCUCAACCAGAAAGUCUGCAAUCAUUUUAAGGGUA [U72A A78G A91G U124C]: 0.02.
Next, GUUAACGGUCAUAGGCCAUGGAAACUAGGAGCACCAUUUCGCUGCCAGUGAAGAAAUGAACAAAGAAAACCUGGACCAGGCAGGCACCAAAAGAAAUAGUCUUGCGCUCAACCAGAAAGUCUGUAAUCAUUUUAAGGGUA [U70C G75A U87C]: 0.26; GUUAACGGUCAUAGGCCAUGGAAACUAGGAGCACCAUUUCGCUGCCAGUGAAGAAAUGAACAAAGAAAACCUGGGCCAGGCAGGCAUCAAAAGAAAUAGUCUUGCGCCCAACAAGAAAGUCUGUAAUCAUUUUAAGGGUA [U70C U108C C113A]: 0.
Next, GUUAACGGUCAUAGGCCAUGGAAACUAGGAGCACCAUUUCGCUGCCAGUGAAGAAAUGAACAAAGAAAACCAGGGCCAGGCAGGCAUCAAAAGAAAUAGUCUUGCGCUCAACCAGGAAGUCUGUAAUCAUUUUAAGGGUA [U70C U72A A116G]: 0.14.
In the case of GUUAACGGUCAUAGGCCAUGGAAACUAGGAGCACCAUUUCGCUGCCAGUGAAGAAAUGAACAAAGAAAACCUGGGCCAGGCAGGCACCAAAAGAAAUAGUCUUGCGCUCAACCAGAAAGUCUGUAAUCAUUUUAAGGGCA [U70C U87C U139C], the self-cleavage was determined as 1.02.
Next, GUUAACGGUCAUAGGCCAUGGAAACUAGGAGCACCAUUUCGCUGCCAGUGAAGAAAUGAACAAAGAAAACCUGGGCCAGGCAGGCAUCAAAAGAAAUAGUCUUGCGCUCAACCAGAAAGUCUGUAAACAUUCUAAGGGUA [U70C U127A U132C]: 1.07.
As for GUUAACGGUCAUAGGCCAUGGAAACUAGGAGCACCAUUUCGCUGCCAGUGAAGAAAUGAACAAAGAAAACCUGGGCCAGGCGGGCAUCAAAAGAAAUAGUCUUGCGCUCAACCAGAAAGUCCGAAAUCAUUUUAAGGGUA [U70C A82G U122C U124A], the self-cleavage stood at 0.11.
Regarding GUUAACGGUCAUAGGCCAUGGAAACUAGGAGCACCAUUUCGCUGCCAGUGAAGAAAUGAACAAAGAAAAUCAGGGCCUGGCAGGCACCAAAAGAAAUAGUCUCGCGCUCAACCAGAAAGUCUGUAAUCAUUUUAAGGGUA [U72A A78U U87C U103C], the self-cleavage is 0.09.
Next, GUUAACGGUCAUAGGCCAUGGAAACUAGGAGCACCAUUUCGCUGCCAGUGAAGAAAUGAACAAAGAAAACCUGGGCCAGGCAGGCAUCAAAAGAAAUAGUCUUGUGCUCAACCAGAGAGUCUGUAAUCAUUUUAAGAGUA [U70C C105U A117G G137A]: 0.12.
For the variant GUUAACGGUCAUAGGCCAUGGAAACUAGGAGCACCAUUUCGCUGCCAGUGAAGAAAUGAACAAAGAAAACCUGGGCCAGGCAGGCAUCAUAAGAAAUAGUCUUGCGCUCAACCAGAAAGUCCGUAAUCAUCUUAAGGGUA [U70C A90U U122C U131C], the self-cleavage stood at 0.27.
In the case of GUUAACGGUCAUAGGCCAUGGAAACUAGGAGCACCAUUUCGCUGCCAGUGAAGAAAUGAACAAAGAAAACCUGGGCCAGGCAGGCAUCAAAGGAAAUAGUCCUGCGCUCAACCAGAAAGUCUAUAAUCAUUUUAAGGGUA [U70C A92G U102C G123A], the self-cleavage was 1.39.
Regarding GUUAACGGUCAUAGGCCAUGGAAACUAGGAGCACCAUUUCGCUGCCAGUGAAGAAAUGAACAAAGAAAACCUGGGCCAGGCAGGCAUCAAAAGAAAUAGUCCUGCGCUCAACCAGAAAGUCUGUAAUCAUUCUAAGGGUA [U70C U102C U132C], the self-cleavage is 1.62.
In the case of GUUAACGGUCAUAGGCCAUGGAAACUAGGAGCACCAUUUCGCUGCCAGUGAAGAAAUGAACAAAGAAAACCUGGGCCAGGCAGGCACCUAAAGAAAUAGUCUUGCGCUCAACCAGAAAGUCUGUAAUCAUUUUAAGGGUA [U70C U87C A89U], the self-cleavage stood at 0.69.
For GUUAACGGUCAUAGGCCAUGGAAACUAGGAGCACCAUUUCGCUGCCAGUGAAGAAAUGAACAAAGAAAACCUGGGCCUGGCAGGCAUCAAAAGAAAUAGUCUUGCGCUCAACCAGAAAGUCUGUAAACAUUUUAAGGGUA [U70C A78U U127A], the self-cleavage is 0.21.
Next, GUUAACGGUCAUAGGCCAUGGAAACUAGGAGCACCAUUUCGCUGCCAGUGAAGAAAUGAACAAAGAAAACCAGGGCCAGGCAGGCAUCAAAAGAAAUAGUCUUGCGCUCAACCAGAAAGUCUGCAAUCAUUUUAAGGGUA [U70C U72A U124C]: 0.13.
Regarding GUUAACGGUCAUAGGCCAUGGAAACUAGGAGCACCAUUUCGCUGCCAGUGAAGAAAUGAACAAAGAAAACCUGGGCCAGGCAGGCAUCAAAAGAAAUAGCCUUGCGCUCAACCAGAAAGUCCGUAAUCAUUUUAAGGGUA [U70C U100C U122C], the self-cleavage came to 2.06.
